Measured values as given in the supplement of paper PMC7125110.
± gives the standard error. Variants at the background level are over-represented here.

B1: glmS ribozyme (parent)
chain: AUAAAAGCGCCAGAACUACAGAAAUGUAGUUGACGAGGAGGAGGUUUAUCGAAUUUUCGGCGGAUGCCUCCAAA

Tests used:
Conditions in all cases: with glucosamine-6-phosphate
[1] = variants of: B1; experiment: self-cleavage kobs at 40 uM GlcN6P; higher = faster cleavage; RNA array
Method in brief: (§1)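 Tiles of sequenced MiSeq chips were imaged over ~14 h at 37 °C. On them, barcoded ribozyme variants had been transcribed in situ by E. coli RNA polymerase and were tracked via a hybridised Cy3 probe while glucosamine-6-phosphate (40 μM to 10 mM) in HEPES/KCl/Mg(OAc)2 buffer flowed in. Per-tile medians, normalised to baseline and to non-cleaving reference variants, were fit to one- or two-exponential decays for kobs, and weighted Michaelis–Menten fits gave kcat and KM.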

[2] = variants of: B1; experiment: self-cleavage kobs at 640 uM GlcN6P; higher = faster cleavage; RNA array
Method in brief: as §1

[3] = variants of: B1; experiment: self-cleavage kobs at 160 uM GlcN6P; higher = faster cleavage; RNA array
Method in brief: as §1

[4] = variants of: B1; experiment: self-cleavage kobs at 2500 uM GlcN6P; higher = faster cleavage; RNA array
Method in brief: as §1

[5] = variants of: B1; experiment: self-cleavage kobs at 10000 uM GlcN6P; higher = faster cleavage; RNA array
Method in brief: as §1

| Variant | self-cleavage kobs at 40 uM GlcN6P [1] [s⁻¹] | self-cleavage kobs at 640 uM GlcN6P [2] [s⁻¹] | self-cleavage kobs at 160 uM GlcN6P [3] [s⁻¹] | self-cleavage kobs at 2500 uM GlcN6P [4] [s⁻¹] | self-cleavage kobs at 10000 uM GlcN6P [5] [s⁻¹] |
| --- | --- | --- | --- | --- | --- |
| G35U G59U | < 1e-05 | < 1e-05 | < 1e-05 | < 1e-05 | < 1e-05 |
| G35U C61U U65G | < 1e-05 | – | – | – | – |
| G37C A42C | < 1e-05 | – | < 1e-05 | – | – |
| G35C U54C | < 1e-05 | – | < 1e-05 | < 1e-05 | < 1e-05 |
| A36G C58G | < 1e-05 | – | – | < 1e-05 | < 1e-05 |
| G35A G60C | < 1e-05 | – | – | < 1e-05 | – |
| G35C G43U U46G C50U C71A | < 1e-05 | – | – | – | – |
| G37U G41U G63U A64G U65C | < 1e-05 | < 1e-05 | – | < 1e-05 | < 1e-05 |
| G37A G38U G40A | < 1e-05 | – | – | < 1e-05 | < 1e-05 |
| A36G A64C | < 1e-05 | < 1e-05 | – | < 1e-05 | – |
| A36G A64U | < 1e-05 | < 1e-05 | < 1e-05 | – | < 1e-05 |
| A36G A64G | < 1e-05 | – | < 1e-05 | – | – |
| A36C A48U A64U | < 1e-05 | – | – | – | – |
| A36G C61U | < 1e-05 | < 1e-05 | < 1e-05 | – | < 1e-05 |
| A36C U65G C70U | < 1e-05 | – | – | – | < 1e-05 |
| A36U C61U | < 1e-05 | – | – | < 1e-05 | – |
| A36U A39U | < 1e-05 | < 1e-05 | < 1e-05 | < 1e-05 | < 1e-05 |
| G35U A48U C71G | < 1e-05 | – | – | – | – |
| A36C G62A C67U | < 1e-05 | – | – | – | < 1e-05 |
| G35U G41C G43A | < 1e-05 | < 1e-05 | – | – | – |
| A36G G44A | < 1e-05 | < 1e-05 | < 1e-05 | < 1e-05 | < 1e-05 |
| A36C G38U G43U C50G G66U | < 1e-05 | < 1e-05 | – | < 1e-05 | – |
| A36G A42U G44U G66A | < 1e-05 | – | – | – | < 1e-05 |
| G37C U47G | < 1e-05 | – | – | – | – |

| Variant | self-cleavage kobs at 40 uM GlcN6P [1] [s⁻¹] | self-cleavage kobs at 640 uM GlcN6P [2] [s⁻¹] | self-cleavage kobs at 160 uM GlcN6P [3] [s⁻¹] | self-cleavage kobs at 2500 uM GlcN6P [4] [s⁻¹] | self-cleavage kobs at 10000 uM GlcN6P [5] [s⁻¹] |
| --- | --- | --- | --- | --- | --- |
| A36G G38A | < 1e-05 | < 1e-05 | – | – | < 1e-05 |
| G37C G44U U46G C71G | < 1e-05 | – | – | – | – |
| G35U G41A | < 1e-05 | < 1e-05 | < 1e-05 | < 1e-05 | < 1e-05 |
| G35U C61A G66U | < 1e-05 | – | – | – | < 1e-05 |
| G35U A42C G62A | < 1e-05 | – | – | – | < 1e-05 |
| G35A G44C | < 1e-05 | < 1e-05 | < 1e-05 | < 1e-05 | < 1e-05 |
| A36U G44C U47G | < 1e-05 | – | – | – | < 1e-05 |
| G37C U46C | < 1e-05 | – | – | – | – |
| G35C A42G U49A G66C | < 1e-05 | – | – | < 1e-05 | < 1e-05 |
| G35U G37C A42G | < 1e-05 | – | – | – | < 1e-05 |
| A36U G59C G63A G66U | < 1e-05 | – | – | < 1e-05 | < 1e-05 |
| G37A C50A G59A G66A | < 1e-05 | – | – | – | – |
| G37C U65G U69G | < 1e-05 | – | – | – | – |
| G35A U49G C71A | < 1e-05 | – | – | – | – |
| A36G G66A | < 1e-05 | – | < 1e-05 | – | – |
| C34U U65C | < 1e-05 | < 1e-05 | < 1e-05 | < 1e-05 | < 1e-05 |
| C34U U65A | < 1e-05 | < 1e-05 | < 1e-05 | – | < 1e-05 |
| G37A C50G A53G | < 1e-05 | – | – | – | – |
| A36C U57C | < 1e-05 | < 1e-05 | – | – | < 1e-05 |
| A36C U57G | < 1e-05 | < 1e-05 | < 1e-05 | < 1e-05 | < 1e-05 |
| G35C A52U | < 1e-05 | < 1e-05 | < 1e-05 | < 1e-05 | < 1e-05 |
| C34U U45A A53U | < 1e-05 | – | – | – | – |
| G37U A39U G41U | < 1e-05 | – | – | < 1e-05 | < 1e-05 |
| G37U G59C | < 1e-05 | < 1e-05 | – | – | < 1e-05 |

| Variant | self-cleavage kobs at 40 uM GlcN6P [1] [s⁻¹] | self-cleavage kobs at 640 uM GlcN6P [2] [s⁻¹] | self-cleavage kobs at 160 uM GlcN6P [3] [s⁻¹] | self-cleavage kobs at 2500 uM GlcN6P [4] [s⁻¹] | self-cleavage kobs at 10000 uM GlcN6P [5] [s⁻¹] |
| --- | --- | --- | --- | --- | --- |
| A36U U47C A64U | < 1e-05 | – | – | – | – |
| G37C G41U U46C | < 1e-05 | – | – | – | – |
| G37C G59A | < 1e-05 | – | – | – | – |
| G35A A52C | < 1e-05 | < 1e-05 | < 1e-05 | < 1e-05 | < 1e-05 |
| G35A A52U | < 1e-05 | < 1e-05 | < 1e-05 | < 1e-05 | < 1e-05 |
| G37C G40C G51C | < 1e-05 | – | – | – | < 1e-05 |
| A36U G66C | < 1e-05 | – | < 1e-05 | – | – |
| A36G G59A | < 1e-05 | < 1e-05 | < 1e-05 | < 1e-05 | < 1e-05 |
| A36G G59C | < 1e-05 | < 1e-05 | < 1e-05 | < 1e-05 | < 1e-05 |
| G37C G40C | < 1e-05 | < 1e-05 | < 1e-05 | – | < 1e-05 |
| G35A U56C | < 1e-05 | < 1e-05 | < 1e-05 | – | < 1e-05 |
| G35U A53U C61G C68G | 0.000579 ± 0.00022 | – | – | – | 0.000516 ± 0.0002 |
| G35A G40U | < 1e-05 | < 1e-05 | < 1e-05 | < 1e-05 | < 1e-05 |
| G35A G40A | < 1e-05 | – | < 1e-05 | < 1e-05 | – |
| G35U A39C | < 1e-05 | – | < 1e-05 | < 1e-05 | < 1e-05 |
| A36U A42C | < 1e-05 | < 1e-05 | < 1e-05 | < 1e-05 | – |
| A36G G51C G60A | < 1e-05 | – | – | – | < 1e-05 |
| G35A A52G G62U | < 1e-05 | – | – | – | – |
| A36G U46G | < 1e-05 | < 1e-05 | < 1e-05 | – | < 1e-05 |
| A36U U45A C58A | < 1e-05 | – | – | – | < 1e-05 |
| G35U A36C U47A C67G | < 1e-05 | – | – | – | – |
| G35C A42G C70G | < 1e-05 | – | – | < 1e-05 | – |
| G37C U55C | < 1e-05 | – | – | – | – |
| G35A A64G C70G | < 1e-05 | – | – | – | – |

| Variant | self-cleavage kobs at 40 uM GlcN6P [1] [s⁻¹] | self-cleavage kobs at 640 uM GlcN6P [2] [s⁻¹] | self-cleavage kobs at 160 uM GlcN6P [3] [s⁻¹] | self-cleavage kobs at 2500 uM GlcN6P [4] [s⁻¹] | self-cleavage kobs at 10000 uM GlcN6P [5] [s⁻¹] |
| --- | --- | --- | --- | --- | --- |
| A36U G51U A64G C70U | < 1e-05 | – | – | – | – |
| G35U A39U G44A U45G | < 1e-05 | < 1e-05 | < 1e-05 | – | < 1e-05 |
| G35C U47C | < 1e-05 | – | – | – | < 1e-05 |
| G35C U47A | < 1e-05 | < 1e-05 | < 1e-05 | < 1e-05 | < 1e-05 |
| A36C A52G G66U C70U | < 1e-05 | – | – | < 1e-05 | – |
| A36C A39C A48C | < 1e-05 | < 1e-05 | – | – | < 1e-05 |
| G35U A39U A53G | < 1e-05 | – | – | – | < 1e-05 |
| A36C A42C | < 1e-05 | – | < 1e-05 | – | < 1e-05 |
| G35C U55C C67G C68U | < 1e-05 | – | – | – | < 1e-05 |
| G35A U47G A48G G60C | < 1e-05 | – | – | < 1e-05 | – |
| G35U U65C | < 1e-05 | < 1e-05 | < 1e-05 | < 1e-05 | – |
| G37U G44U | < 1e-05 | < 1e-05 | < 1e-05 | – | < 1e-05 |
| G35A G40U A53G | < 1e-05 | < 1e-05 | – | < 1e-05 | < 1e-05 |
| G37C U57G C67U | < 1e-05 | – | – | – | – |
| G37A U47A | 4.6e-05 ± 1.8e-05 | 0.000278 ± 4.8e-05 | 7.83e-05 ± 1.8e-05 | 0.000752 ± 0.00014 | 0.00229 ± 0.00044 |
| G37C U56A | < 1e-05 | – | – | – | – |
| G35A G37C | < 1e-05 | < 1e-05 | < 1e-05 | < 1e-05 | < 1e-05 |
| A36G U54G | < 1e-05 | – | – | – | – |
| G35U G37A | < 1e-05 | < 1e-05 | – | < 1e-05 | – |
| G37A G41C | < 1e-05 | – | – | – | – |
| G37C U45A C70G | < 1e-05 | – | – | – | < 1e-05 |
| A36G G51C | < 1e-05 | – | – | – | < 1e-05 |
| C34U U46G | < 1e-05 | < 1e-05 | – | – | < 1e-05 |
